According to the antibiotic and cytotoxicity screens of Wong et al. (2023):
Some of the results follow.

How the values were obtained:
HSkMC = human skeletal muscle cells; experiment: cytotoxicity call (relative viability < 0.9); settings: 10 µM
HepG2 = experiment: cytotoxicity call (relative viability < 0.9); settings: 10 µM
S. aureus RN4220 = experiment: growth inhibition call (relative growth <= 0.2); settings: 50 µM

CC(=O)N[C@H]1C/C=C/C[C@@H](CC(=O)NCc2ccc(Cl)cc2)C(=O)NC[C@@H](c2ccccc2)OC1=O
inactive: cytotoxicity call (HSkMC) | cytotoxicity call (HepG2) | growth inhibition call (S. aureus RN4220)

C[C@@H]1CN([C@H](C)CO)C(=O)c2cc(NC(=O)Nc3ccccc3)ccc2O[C@@H](C)CCCCO[C@H]1CN(C)S(=O)(=O)c1cccs1
inactive: cytotoxicity call (HSkMC) | cytotoxicity call (HepG2) | growth inhibition call (S. aureus RN4220)

CCCC(=O)Nc1ccc2c(c1)C(=O)N(C)[C@@H]1CC[C@@H](CC(=O)NCCN3CCCCC3)O[C@H]1CO2
inactive: cytotoxicity call (HSkMC) | cytotoxicity call (HepG2) | growth inhibition call (S. aureus RN4220)

COc1ccc(NC(=O)N(C)C[C@H]2OCCCC[C@@H](C)Oc3ccc(NS(=O)(=O)c4ccc(Cl)cc4)cc3C(=O)N([C@H](C)CO)C[C@H]2C)cc1
inactive: cytotoxicity call (HSkMC) | cytotoxicity call (HepG2) | growth inhibition call (S. aureus RN4220)

C[C@@H]1CN([C@@H](C)CO)C(=O)c2cccc(NS(C)(=O)=O)c2O[C@H]1CN(C)C(=O)NC1CCCCC1
inactive: cytotoxicity call (HSkMC) | cytotoxicity call (HepG2) | growth inhibition call (S. aureus RN4220)

Cc1noc(C)c1S(=O)(=O)Nc1ccc2c(c1)CC(=O)N([C@@H](C)CO)C[C@@H](C)[C@H](CN(C)S(=O)(=O)c1cn(C)cn1)O2
inactive: cytotoxicity call (HSkMC) | cytotoxicity call (HepG2) | growth inhibition call (S. aureus RN4220)

CC(C)CC#Cc1ccc2c(c1)O[C@@H](CN(C)C(=O)Cc1ccccn1)[C@@H](C)CN([C@H](C)CO)S2(=O)=O
inactive: cytotoxicity call (HSkMC) | cytotoxicity call (HepG2) | growth inhibition call (S. aureus RN4220)

C[C@H]1CN([C@@H](C)CO)C(=O)Cc2cc(NC(=O)Nc3cccc4ccccc34)ccc2O[C@@H]1CN(C)Cc1ccc(Oc2ccccc2)cc1
inactive: cytotoxicity call (HSkMC) | cytotoxicity call (HepG2) | growth inhibition call (S. aureus RN4220)

C[C@H]1CN([C@@H](C)CO)C(=O)CCCn2cc(nn2)CO[C@@H]1CN(C)S(C)(=O)=O
inactive: cytotoxicity call (HSkMC) | cytotoxicity call (HepG2) | growth inhibition call (S. aureus RN4220)

C[C@@H]1CCCCO[C@@H](CN(C)C(=O)Nc2ccc(F)cc2)[C@@H](C)CN([C@H](C)CO)C(=O)c2cc(NC(=O)Cc3ccccc3)ccc2O1
inactive: cytotoxicity call (HSkMC) | cytotoxicity call (HepG2) | growth inhibition call (S. aureus RN4220)

C[C@@H]1CN([C@@H](C)CO)C(=O)c2cccc(N(C)C)c2O[C@@H]1CN(C)S(=O)(=O)c1ccc(Cl)cc1
inactive: cytotoxicity call (HSkMC) | cytotoxicity call (HepG2) | growth inhibition call (S. aureus RN4220)

COc1ccc(S(=O)(=O)N(C)C[C@@H]2Oc3c(NC(=O)c4cc(C)nn4C)cccc3C(=O)N([C@H](C)CO)C[C@@H]2C)cc1
inactive: cytotoxicity call (HSkMC) | cytotoxicity call (HepG2) | growth inhibition call (S. aureus RN4220)

C[C@@H]1CN([C@H](C)CO)C(=O)c2cc(NC(=O)CCCN(C)C)ccc2O[C@H]1CN(C)S(=O)(=O)c1ccccc1
inactive: cytotoxicity call (HSkMC) | cytotoxicity call (HepG2) | growth inhibition call (S. aureus RN4220)

C=CC[C@H](CC(=O)N(CCO)Cc1ccccc1)C(=O)NC[C@@H](OC(=O)[C@@H](CC=C)Cc1ccc(F)cc1)c1ccccc1
inactive: cytotoxicity call (HSkMC) | cytotoxicity call (HepG2) | growth inhibition call (S. aureus RN4220)

Cc1cnc2c(c1NCCN(C)C)c(=O)n(C)c(=O)n2C
inactive: cytotoxicity call (HSkMC) | cytotoxicity call (HepG2) | growth inhibition call (S. aureus RN4220)

CCCN1C[C@@H](C)[C@H](OC)CN(C)C(=O)c2ccc(NS(=O)(=O)c3cn(C)cn3)cc2OC[C@@H]1C
inactive: cytotoxicity call (HSkMC) | cytotoxicity call (HepG2) | growth inhibition call (S. aureus RN4220)

C[C@H](CO)N1C[C@H](C)[C@@H](CN(C)Cc2ccc(Cl)c(Cl)c2)OCCCC[C@H](C)Oc2ccc(NC(=O)c3ccncc3)cc2C1=O
inactive: cytotoxicity call (HSkMC) | cytotoxicity call (HepG2) | growth inhibition call (S. aureus RN4220)

CCOC(=O)c1cc2c(c(-c3cccc(-c4cccc(OC)c4)c3)n1)[C@H](CCO)N(S(=O)C(C)(C)C)C2 (some centres undefined)
inactive: cytotoxicity call (HSkMC) | cytotoxicity call (HepG2) | growth inhibition call (S. aureus RN4220)

COc1ccc(C#Cc2ccc3c(c2)O[C@@H](CN(C)C(C)=O)[C@@H](C)CN([C@H](C)CO)S3(=O)=O)cc1
inactive: cytotoxicity call (HSkMC) | cytotoxicity call (HepG2) | growth inhibition call (S. aureus RN4220)

C[C@@H]1CN([C@@H](C)CO)C(=O)c2cc(NC(=O)c3ccncc3)ccc2O[C@@H](C)CCCCO[C@@H]1CN(C)S(=O)(=O)c1cn(C)cn1
inactive: cytotoxicity call (HSkMC) | cytotoxicity call (HepG2) | growth inhibition call (S. aureus RN4220)

C[C@@H]1CN([C@@H](C)CO)C(=O)c2cccc(NC(=O)c3ccncc3)c2O[C@@H]1CN(C)C(=O)Nc1ccc2c(c1)OCO2
inactive: cytotoxicity call (HSkMC) | cytotoxicity call (HepG2) | growth inhibition call (S. aureus RN4220)

CCS(=O)(=O)N[C@@H]1CC[C@@H](CC(=O)NCc2ccccn2)O[C@@H]1CO
inactive: cytotoxicity call (HSkMC) | cytotoxicity call (HepG2) | growth inhibition call (S. aureus RN4220)

C[C@@H]1CN([C@H](C)CO)C(=O)c2cc(NC(=O)Nc3cccc4ccccc34)ccc2O[C@@H]1CN(C)Cc1ccc2c(c1)OCO2
inactive: cytotoxicity call (HSkMC) | cytotoxicity call (HepG2) | growth inhibition call (S. aureus RN4220)

O=C(C[C@@H]1CC[C@H]2[C@@H](COC[C@@H](O)CN2Cc2ccccc2F)O1)N[C@@H]1CCN(Cc2ccccc2)C1
inactive: cytotoxicity call (HSkMC) | cytotoxicity call (HepG2) | growth inhibition call (S. aureus RN4220)

Cc1noc(C)c1NC(=O)Nc1ccc2c(c1)C(=O)N([C@@H](C)CO)C[C@@H](C)[C@H](CN(C)C(=O)NC(C)C)O2
inactive: cytotoxicity call (HSkMC) | cytotoxicity call (HepG2) | growth inhibition call (S. aureus RN4220)

CC(=O)[C@@H](OC(=O)CS(C)(=O)=O)C(=O)NCc1ccccc1
inactive: cytotoxicity call (HSkMC) | cytotoxicity call (HepG2) | growth inhibition call (S. aureus RN4220)

Cc1ccc(S(=O)(=O)N(C)C[C@@H]2Oc3ncc(-c4ccncc4)cc3C(=O)N([C@@H](C)CO)C[C@@H]2C)cc1
inactive: cytotoxicity call (HSkMC) | cytotoxicity call (HepG2) | growth inhibition call (S. aureus RN4220)

Cc1noc(C)c1S(=O)(=O)Nc1ccc2c(c1)CC(=O)N([C@H](C)CO)C[C@@H](C)[C@@H](CN(C)S(C)(=O)=O)O2
inactive: cytotoxicity call (HSkMC) | cytotoxicity call (HepG2) | growth inhibition call (S. aureus RN4220)
